# This is one part of the list.
# B1: PX9937D-bvu-500-26-500 (Bacteroides vulgatus) (protein)
# chain: DPVSDITDLNYWKTPEQFDSFVFGLHSRFRSHSWNMFLLGEARSDVFGGIPFGGEATQGMERFPYNTLNAENPGISGFGDLYQNINQMNLFISRTLHTDVLTESARNYYLGQVYGLRAYYMYQLYRSWGDVVFTEEPSLGFEVGKLAKAATPAAEIFEQVKKDIESSLSYFGSDYTIKEKKSLWSKAATLMLKADVYLWSAHRDGGEGDARTAKNALVDIQNNISRSNLDLMDTYQGVFAYDNKGNKEIIFTIHNELFEYNLWNGNNDLFPQADYLGKFYNADGTLINTSVENNFGIMRLMVKLENFKKFLPGDTRRDVTLKDVYNKVENGKLELVGVYPHKYWGVMNGSTRVRCDDYPIYRYSDLLLMLAEAKVLLGEDPATEINRVRRRAFGDAYDASTVGFPNQEVDKRPADAVLQERLFEFMLEGKRWYDLRRFGDSYVLDYTPAEPARLLWPINQGALTNNPLLKQTVGY
# How the values were obtained:
# Assay in all cases: glycan array binding signal (z-score within array); higher = stronger binding
# Details in all cases: glycan notation: IUPAC condensed, linker removed
# [1] = biological target: Neu5Ac(a2-3)Gal(b1-4)GlcNAc(b1-2)[Neu5Ac(a2-3)Gal(b1-4)GlcNAc(b1-4)]Man(a1-3)[GlcNAc(b1-4)][Neu5Ac(a2-3)Gal(b1-4)GlcNAc(b1-4)Man(a1-6)]Man(b1-4)GlcNAc(b1-4)GlcNAc
# How it was run: (§1)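 The binding signal is a Z-score computed within each array. Data were drawn from 3228 arrays in the Consortium for Functional Glycomics database, restricted to those with a known protein sequence. Scores were averaged over arrays of the same protein sequence at different concentrations or buffers, and over linkers, and negative values can be taken as non-binding.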
# [2] = biological target: Neu5Ac(a2-3)Gal(b1-4)GlcNAc(b1-2)[Neu5Ac(a2-3)Gal(b1-4)GlcNAc(b1-6)]Man(a1-6)[Neu5Ac(a2-3)Gal(b1-4)GlcNAc(b1-2)Man(a1-3)]Man(b1-4)GlcNAc(b1-4)GlcNAc
# How it was run: as §1
# [3] = biological target: Neu5Ac(a2-3)Gal(b1-4)GlcNAc(b1-2)[Neu5Ac(a2-3)Gal(b1-4)GlcNAc(b1-6)]Man(a1-6)[Neu5Ac(a2-3)Gal(b1-4)GlcNAc(b1-2)Man(a1-3)][GlcNAc(b1-4)]Man(b1-4)GlcNAc(b1-4)GlcNAc
# How it was run: as §1
# [4] = biological target: Neu5Ac(a2-3)Gal(b1-4)GlcNAc(b1-3)Gal
# How it was run: as §1
# [5] = biological target: Neu5Ac(a2-3)Gal(b1-4)GlcNAc(b1-3)Gal(b1-3)GlcNAc
# How it was run: as §1
# [6] = biological target: Neu5Ac(a2-3)Gal(b1-4)GlcNAc(b1-3)Gal(b1-4)GlcNAc
# How it was run: as §1
# [7] = biological target: Neu5Ac(a2-3)Gal(b1-4)GlcNAc(b1-3)Gal(b1-4)GlcNAc(b1-2)Man(a1-3)[Neu5Ac(a2-3)Gal(b1-4)GlcNAc(b1-3)Gal(b1-4)GlcNAc(b1-2)Man(a1-6)]Man(b1-4)GlcNAc(b1-4)GlcNAc
# How it was run: as §1
# [8] = biological target: Neu5Ac(a2-3)Gal(b1-4)GlcNAc(b1-3)Gal(b1-4)GlcNAc(b1-3)Gal(b1-4)GlcNAc
# How it was run: as §1
# [9] = biological target: Neu5Ac(a2-3)Gal(b1-4)GlcNAc(b1-3)Gal(b1-4)GlcNAc(b1-3)Gal(b1-4)GlcNAc(b1-2)Man(a1-3)[Neu5Ac(a2-3)Gal(b1-4)GlcNAc(b1-3)Gal(b1-4)GlcNAc(b1-3)Gal(b1-4)GlcNAc(b1-2)Man(a1-6)]GalNAc
# How it was run: as §1
# [10] = biological target: Neu5Ac(a2-3)Gal(b1-4)GlcNAc(b1-3)Gal(b1-4)GlcNAc(b1-3)GalNAc
# How it was run: as §1
# [11] = biological target: Neu5Ac(a2-3)Gal(b1-4)GlcNAc(b1-3)Gal(b1-4)GlcNAc(b1-3)[Neu5Ac(a2-3)Gal(b1-4)GlcNAc(b1-3)Gal(b1-4)GlcNAc(b1-6)]GalNAc
# How it was run: as §1
# [12] = biological target: Neu5Ac(a2-3)Gal(b1-4)GlcNAc(b1-3)Gal(b1-4)GlcNAc(b1-6)[Gal(b1-3)]GalNAc
# How it was run: as §1
# [13] = biological target: Neu5Ac(a2-3)Gal(b1-4)GlcNAc(b1-3)Gal(b1-4)[Fuc(a1-3)]GlcNAc
# How it was run: as §1
# [14] = biological target: Neu5Ac(a2-3)Gal(b1-4)GlcNAc(b1-3)GalNAc
# How it was run: as §1
# [15] = biological target: Neu5Ac(a2-3)Gal(b1-4)GlcNAc(b1-3)[Neu5Ac(a2-3)Gal(b1-4)GlcNAc(b1-6)]GalNAc
# How it was run: as §1
# [16] = biological target: Neu5Ac(a2-3)Gal(b1-4)GlcNAc(b1-6)GalNAc
# How it was run: as §1
# [17] = biological target: Neu5Ac(a2-3)Gal(b1-4)GlcNAc(b1-6)[Gal(b1-3)]GalNAc
# How it was run: as §1
# [18] = biological target: Neu5Ac(a2-3)Gal(b1-4)GlcNAc(b1-6)[Neu5Ac(a2-3)Gal(b1-3)]GalNAc
# How it was run: as §1
# [19] = biological target: Neu5Ac(a2-3)Gal(b1-4)GlcNAc6S
# How it was run: as §1
# [20] = biological target: Neu5Ac(a2-3)Gal(b1-4)[Fuc(a1-3)]GlcNAc
# How it was run: as §1
# [21] = biological target: Neu5Ac(a2-3)Gal(b1-4)[Fuc(a1-3)]GlcNAc(b1-2)Man
# How it was run: as §1
# [22] = biological target: Neu5Ac(a2-3)Gal(b1-4)[Fuc(a1-3)]GlcNAc(b1-3)Gal
# How it was run: as §1
# [23] = biological target: Neu5Ac(a2-3)Gal(b1-4)[Fuc(a1-3)]GlcNAc(b1-3)Gal(b1-4)GlcNAc
# How it was run: as §1
# [24] = biological target: Neu5Ac(a2-3)Gal(b1-4)[Fuc(a1-3)]GlcNAc(b1-3)Gal(b1-4)[Fuc(a1-3)]GlcNAc(b1-3)Gal(b1-4)[Fuc(a1-3)]GlcNAc
# How it was run: as §1
# [25] = biological target: Neu5Ac(a2-3)Gal(b1-4)[Fuc(a1-3)]GlcNAc(b1-3)GalNAc
# How it was run: as §1
# [26] = biological target: Neu5Ac(a2-3)Gal(b1-4)[Fuc(a1-3)]GlcNAc(b1-6)[Gal(b1-3)]GalNAc
# How it was run: as §1
# [27] = biological target: Neu5Ac(a2-3)Gal(b1-4)[Fuc(a1-3)]GlcNAc(b1-6)[Neu5Ac(a2-3)Gal(b1-3)]GalNAc
# How it was run: as §1
# [28] = biological target: Neu5Ac(a2-3)Gal(b1-4)[Fuc(a1-3)]GlcNAc6S
# How it was run: as §1
# [29] = biological target: Neu5Ac(a2-3)Gal6S(b1-4)GlcNAc
# How it was run: as §1
# [30] = biological target: Neu5Ac(a2-3)Gal6S(b1-4)[Fuc(a1-3)]GlcNAc
# How it was run: as §1
# Neu5Ac(a2-3)GalNAc = biological target: Neu5Ac(a2-3)GalNAc
# How it was run: as §1
# [31] = biological target: Neu5Ac(a2-3)GalNAc(b1-4)GlcNAc
# How it was run: as §1
# [32] = biological target: Neu5Ac(a2-3)[GalNAc(b1-4)]Gal(b1-4)Glc
# How it was run: as §1
# [33] = biological target: Neu5Ac(a2-3)[GalNAc(b1-4)]Gal(b1-4)GlcNAc
# How it was run: as §1
# [34] = biological target: Neu5Ac(a2-3)[GalNAc(b1-4)]Gal(b1-4)GlcNAc(b1-3)GalNAc
# How it was run: as §1
# [35] = biological target: Neu5Ac(a2-3)[Neu5Ac(a2-6)]GalNAc
# How it was run: as §1
# Neu5Ac(a2-6)Gal = biological target: Neu5Ac(a2-6)Gal
# How it was run: as §1
binder,measurement,setting,value
B1,glycan array binding signal (z-score),[1],-0.376
same,glycan array binding signal (z-score),[2],-0.087
same,glycan array binding signal (z-score),[3],-0.162
same,glycan array binding signal (z-score),[4],-0.564
same,glycan array binding signal (z-score),[5],-0.654
same,glycan array binding signal (z-score),[6],-0.075
same,glycan array binding signal (z-score),[7],0.163
same,glycan array binding signal (z-score),[8],-0.245
same,glycan array binding signal (z-score),[9],0.765
same,glycan array binding signal (z-score),[10],-0.365
same,glycan array binding signal (z-score),[11],-0.355
same,glycan array binding signal (z-score),[12],-0.474
same,glycan array binding signal (z-score),[13],-0.034
same,glycan array binding signal (z-score),[14],-0.482
same,glycan array binding signal (z-score),[15],-0.02
same,glycan array binding signal (z-score),[16],-0.316
same,glycan array binding signal (z-score),[17],-0.694
same,glycan array binding signal (z-score),[18],-0.545
same,glycan array binding signal (z-score),[19],-0.569
same,glycan array binding signal (z-score),[20],-0.476
same,glycan array binding signal (z-score),[21],0.114
same,glycan array binding signal (z-score),[22],-0.399
same,glycan array binding signal (z-score),[23],-0.399
same,glycan array binding signal (z-score),[24],-0.211
same,glycan array binding signal (z-score),[25],0.525
same,glycan array binding signal (z-score),[26],-0.331
same,glycan array binding signal (z-score),[27],0.402
same,glycan array binding signal (z-score),[28],-0.556
same,glycan array binding signal (z-score),[29],-0.307
same,glycan array binding signal (z-score),[30],-0.587
same,glycan array binding signal (z-score),Neu5Ac(a2-3)GalNAc,-0.37
same,glycan array binding signal (z-score),[31],-0.504
same,glycan array binding signal (z-score),[32],0.057
same,glycan array binding signal (z-score),[33],-0.037
same,glycan array binding signal (z-score),[34],-0.455
same,glycan array binding signal (z-score),[35],-0.396
same,glycan array binding signal (z-score),Neu5Ac(a2-6)Gal,-0.104

# From the supplement of paper PMC8728848
